B1: 81DPQDLIE87+I92L human Fc fusion protein (SEQ ID NO. 116) (Fc fusion)
chain: APTSSSTKKTQLQLEHLLLDLQMILNGINNYKNPELTRMLTFKFYMPKKATELKHLQCLEEELKPLEEVLNLAQSKNFHLDPQDLIENINVLVLELKGSETTFMCEYADETATIVEFLNRWITFSQSIISTLTAS[human IgG1 Fc with L358V (EU numbers) omitted]
notes: also called 81DPQDLIE +I92L87
B2: 80FDPADVVE87+I92L human Fc fusion protein (SEQ ID NO. 121) (Fc fusion)
chain: APTSSSTKKTQLQLEHLLLDLQMILNGINNYKNPELTRMLTFKFYMPKKATELKHLQCLEEELKPLEEVLNLAQSKNFHFDPADVVENINVLVLELKGSETTFMCEYADETATIVEFLNRWITFSQSIISTLTAS[human IgG1 Fc with L358V (EU numbers) omitted]
notes: also called 80FDPADVVE +I92L87
B3: 80FDPEDVVE87+I92L human Fc fusion protein (SEQ ID NO. 122) (Fc fusion)
chain: APTSSSTKKTQLQLEHLLLDLQMILNGINNYKNPELTRMLTFKFYMPKKATELKHLQCLEEELKPLEEVLNLAQSKNFHFDPEDVVENINVLVLELKGSETTFMCEYADETATIVEFLNRWITFSQSIISTLTAS[human IgG1 Fc with L358V (EU numbers) omitted]
notes: also called 80FDPEDVVE +I92L87
B4: 80FDPHDVVE87+I92L+V93L human Fc fusion protein (SEQ ID NO. 118) (Fc fusion)
chain: APTSSSTKKTQLQLEHLLLDLQMILNGINNYKNPELTRMLTFKFYMPKKATELKHLQCLEEELKPLEEVLNLAQSKNFHFDPHDVVENINVLLLELKGSETTFMCEYADETATIVEFLNRWITFSQSIISTLTAS[human IgG1 Fc with L358V (EU numbers) omitted]
notes: also called 80FDPHVVE +I92L87
B5: 80VPPEDLIA87+I92L human Fc fusion protein (SEQ ID NO. 119) (Fc fusion)
chain: APTSSSTKKTQLQLEHLLLDLQMILNGINNYKNPELTRMLTFKFYMPKKATELKHLQCLEEELKPLEEVLNLAQSKNFHVPPEDLIANINVLVLELKGSETTFMCEYADETATIVEFLNRWITFSQSIISTLTAS[human IgG1 Fc with L358V (EU numbers) omitted]
notes: also called 80VPPEDLIA +I92L87
B6: 80VPPEDLIE87+I92L human Fc fusion protein (SEQ ID NO. 120) (Fc fusion)
chain: APTSSSTKKTQLQLEHLLLDLQMILNGINNYKNPELTRMLTFKFYMPKKATELKHLQCLEEELKPLEEVLNLAQSKNFHVPPEDLIENINVLVLELKGSETTFMCEYADETATIVEFLNRWITFSQSIISTLTAS[human IgG1 Fc with L358V (EU numbers) omitted]
notes: also called 80VPPEDLIE +I92L87
B7: 81DPQDLIE87 human Fc fusion protein (SEQ ID NO. 114) (Fc fusion)
chain: APTSSSTKKTQLQLEHLLLDLQMILNGINNYKNPELTRMLTFKFYMPKKATELKHLQCLEEELKPLEEVLNLAQSKNFHLDPQDLIENINVIVLELKGSETTFMCEYADETATIVEFLNRWITFSQSIISTLTAS[human IgG1 Fc with L358V (EU numbers) omitted]
notes: If it is the whole fusion, the Fc part is redundant
B8: 81VPEDLIE87 human Fc fusion protein (SEQ ID NO. 115) (Fc fusion)
chain: APTSSSTKKTQLQLEHLLLDLQMILNGINNYKNPELTRMLTFKFYMPKKATELKHLQCLEEELKPLEEVLNLAQSKNFHLVPEDLIENINVIVLELKGSETTFMCEYADETATIVEFLNRWITFSQSIISTLTAS[human IgG1 Fc with L358V (EU numbers) omitted]
B9: 81VPEDLIE87+I92L human Fc fusion protein (SEQ ID NO. 117) (Fc fusion)
chain: APTSSSTKKTQLQLEHLLLDLQMILNGINNYKNPELTRMLTFKFYMPKKATELKHLQCLEEELKPLEEVLNLAQSKNFHLVPEDLIENINVLVLELKGSETTFMCEYADETATIVEFLNRWITFSQSIISTLTAS[human IgG1 Fc with L358V (EU numbers) omitted]
notes: also called 81VPEDLIE +I92L87
B10: H9/Fc (K35E) fusion protein (Fc fusion, human)
chain: APTSSSTKKTQLQLEHLLLDLQMILNGINNYKNPELTRMLTFKFYMPKKATELKHLQCLEEELKPLEEVLNLAQSKNFHFDPRDVVSNINVFVLELKGSETTFMCEYADETATIVEFLNRWITFSQSIISTLTAS[human IgG1 Fc with L358V (EU numbers) omitted]

Assays:
[1] = biological target: T1, recombinant extracellular domain of the human IL-2 receptor beta subunit (human, UniProt P14784 27-240); assay: ELISA, fusion protein at 60 ng/ml on plate coated with the beta subunit extracellular domain; anti-human Fc antibody-HRP; Abs 490 nm
T1 construct: extracellular domain; also called beta chain of the IL-2 receptor; beta subunit of the receptor
T1 sequence (looked up): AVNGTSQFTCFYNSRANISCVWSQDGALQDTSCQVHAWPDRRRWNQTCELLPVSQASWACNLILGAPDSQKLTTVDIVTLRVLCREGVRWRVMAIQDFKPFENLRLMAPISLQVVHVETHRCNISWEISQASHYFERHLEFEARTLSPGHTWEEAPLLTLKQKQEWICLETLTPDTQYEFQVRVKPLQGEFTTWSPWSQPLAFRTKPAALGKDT

[2] = biological target: T1, recombinant extracellular domain of the …; assay: BIAcore (SPR); format not stated
[3] = biological target: T1, recombinant extracellular domain of the …; assay: BIAcore (SPR)
[4] = biological target: T2, dimeric beta/gamma IL-2 receptor on purified mouse CD8+ T cells (mouse, UniProt P16297 27-539; P34902 23-369); assay: cell-based or functional assay
T2 sequence (looked up) 1: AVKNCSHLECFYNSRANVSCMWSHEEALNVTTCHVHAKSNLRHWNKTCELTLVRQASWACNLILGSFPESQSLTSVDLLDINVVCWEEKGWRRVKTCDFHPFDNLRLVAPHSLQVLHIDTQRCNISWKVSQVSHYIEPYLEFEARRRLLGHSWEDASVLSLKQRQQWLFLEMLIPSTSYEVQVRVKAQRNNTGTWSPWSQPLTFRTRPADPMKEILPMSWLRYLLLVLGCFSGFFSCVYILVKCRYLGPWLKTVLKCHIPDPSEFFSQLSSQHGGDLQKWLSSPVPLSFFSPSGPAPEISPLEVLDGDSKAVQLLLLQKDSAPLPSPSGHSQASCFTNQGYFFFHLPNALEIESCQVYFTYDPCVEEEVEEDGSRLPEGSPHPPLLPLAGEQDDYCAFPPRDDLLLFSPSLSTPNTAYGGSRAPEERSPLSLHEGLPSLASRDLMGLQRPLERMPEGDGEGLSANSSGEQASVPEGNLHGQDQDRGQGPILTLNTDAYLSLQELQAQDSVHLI
T2 sequence (looked up) 2: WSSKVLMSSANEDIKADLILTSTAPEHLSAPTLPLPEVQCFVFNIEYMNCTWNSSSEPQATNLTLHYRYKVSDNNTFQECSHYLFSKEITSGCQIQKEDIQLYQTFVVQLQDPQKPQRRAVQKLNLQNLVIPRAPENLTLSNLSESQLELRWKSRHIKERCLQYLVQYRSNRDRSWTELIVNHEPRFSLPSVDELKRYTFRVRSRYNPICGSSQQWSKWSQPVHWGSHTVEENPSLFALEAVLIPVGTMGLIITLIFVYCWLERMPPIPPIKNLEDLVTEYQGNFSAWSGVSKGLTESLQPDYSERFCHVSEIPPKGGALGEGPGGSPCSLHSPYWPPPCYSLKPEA

[5] = biological target: T1, recombinant extracellular domain of the …; assay: ELISA, Fc fusions at 30 ng/ml on coated beta chain extracellular domain, anti-human Fc-HRP

Binder | binding result [1] | Kd [2] | koff [2] | kon [2] | fold reduction of KD relative to the fusion protein with superkine H9 [3] | fold reduction of KD relative to the fusion protein with unmutated IL-2 [3] | Proportion of proliferating purified CD8+ T cells (%) [4] | ELISA binding capacity, percent higher than the H9 superkine fusion protein [5]
B1 | binds |  |  |  |  |  |  | 
B2 |  | 540 pM | 0.000461 s⁻¹ | 858000 M⁻¹ s⁻¹ | > 3 fold | > 90 fold | 94.5% | ≥ 50%
B3 |  | 290 pM | 0.000273 s⁻¹ | 946000 M⁻¹ s⁻¹ | > 3 fold | > 90 fold | 95.9% | ≥ 50%
B4 |  | 1120 pM | 0.000266 s⁻¹ | 238000 M⁻¹ s⁻¹ | > 3 fold | > 90 fold |  | ≥ 50%
B5 |  | 800 pM | 0.000349 s⁻¹ | 436000 M⁻¹ s⁻¹ | > 3 fold | > 90 fold | 94.3% | ≥ 50%
B6 |  | 370 pM | 0.000304 s⁻¹ | 816000 M⁻¹ s⁻¹ | > 3 fold | > 90 fold | 93.5% | ≥ 50%
B7 | binds |  |  |  |  |  |  | 
B8 | binds |  |  |  |  |  |  | 
B9 | binds |  |  |  |  |  |  | 
B10 |  |  |  |  |  |  | 94% | 
